Drawing on PubChem BioAssay (NCI), this text covers GI50 for 2 compounds.

Test systems include IGROV1 ovarian; A549 NSCLC; HT29 colon; HCT-116 colon; UO-31 renal.
Holding throughout (test): DTP human tumour cell line panel, 48 h

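How tested: cells in 96-well plates exposed to compound for 48 hours at five concentrations. GI50 marks 50% less growth.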 The source holds more than one record for some entries. Only these are listed. An entry can have further records. The records of an entry are repeats (runs, samples, wells, individuals or studies). Brackets tell where a record comes from. The letters are not those of the source and start again with each entry.

Broadly, the GI50 is the concentration that inhibits growth by half. Higher therefore signals lower sensitivity of the cells. For the compound `c1ccc(P(CCP(CCP(c2ccccc2)c2ccccc2)c2ccccc2)CCP(c2ccccc2)c2ccccc2)cc1` (stereo not given), the GI50 is > 10 µM [sample A, 1 test] and 538 nM [sample B, 1 test] in the assay on IGROV1 ovarian; > 10 µM [sample A, 1 test] and 784 nM [sample B, 1 test] with A549 NSCLC; > 10 µM [sample A, 1 test] and 787 nM [sample B, mean of 2 tests] in the assay on HT29 colon; > 10 µM [sample A, 1 test] and 985 nM [sample B, mean of 2 tests] in the assay on HCT-116 colon.

As to `OCC1OC(n2cnc3c(=S)nc[nH]c32)C(O)C1O` (stereo not given), the 50% growth inhibitory concentration (GI50) in the assay on UO-31 renal is 18.5 µM [sample A, 1 test] and > 2.5 mM [sample B, mean of 8 tests].
